# Experimental data reported in PubChem BioAssay AID1508623 (National Center for Advancing Translational Sciences (NCATS), 2021).
# Out of some 48,000 compounds screened, about 450 (0.94%) were called active. Inconclusive results (about 19%) are left out. The call rests on the fitted dose curve; in most records, active means well fitted inhibition curve with a large enough effect; inconclusive means small, poorly fitted or top-dose-only effect; inactive means no such curve, though single readings can be large or run the other way. The list shows a part of the results.
# Experiment: Primary qHTS for Identification of Small Molecule Inhibitors of Huntingtin Promoter Activity; further: nearly all actives have a fitted effect of over 50% in size
# Details: HEK293 HTT promoter firefly luciferase reporter (activity 0% = vehicle and -100% = no light), 24 h; series mostly up to 57.5 µM; activity change, negative = inhibition: at the top concentration
# In short: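 Firefly luciferase readout (Dual-Glo, 10 min RT) after 24 h, 37 °C compound exposure (final up to 57.5 uM) of HEK293 reporter cells cultured 24 h beforehand; PTC124 at 50 uM final as control inhibitor; activity scaled vehicle 0%, zero RLU -100%.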
# Potency means the concentration at half of the fitted maximal effect.
SMILES,"activity change, negative = inhibition",Potency
Cn1ncc2nc(SCC(=O)Nc3ccc(Br)cc3F)n(Cc3ccccc3)c(=O)c21,inactive: -21.2%,
CCOc1ccc(CCNC(=O)CN2N=C(c3ccccc3)CCC2=O)cc1OCC,inactive: -24.2%,
c1cc(-c2sc(-c3ccncc3)c(-c3ccncc3)c2-c2ccncc2)ccn1,inactive: 5.22%,
CC(=O)c1ccc(NC(=O)CSc2nc(-c3cccc(F)c3)nc3c2c(=O)n(C)c(=O)n3C)cc1,inactive: -12.7%,
CN1C(C(=O)Nc2ccc(F)cc2F)=CC(c2ccc3c(c2)OCO3)=NS1(=O)=O,inactive: -11.7%,
Cc1cc(C)cc(NC(=O)CN2C(=O)c3ccccc3Sc3ncccc32)c1,inactive: -24.3%,
CCCCN(CC)CCCNC(=O)c1cc2c(=O)[nH]c3ccccc3c2s1,inactive: -12.7%,
Cc1cc(NC(=O)C2=C(O)c3ccccc3S(=O)(=O)N2C)no1,inactive: 5.99%,
COc1ccc(CNC(=O)c2ccc3c(c2)nc2n3CCOC2)c(OC)c1,inactive: 6.6%,
Cc1ccc(-c2cc(C(F)(F)F)c(C#N)c(SCC(=O)Nc3ccccc3)n2)cc1,inactive: -12.5%,
CCOC(=O)C(C)NC(=O)c1c(C)oc2ncn(CC(C)C)c(=O)c12 (centres undefined),inactive: 0%,
Cc1ccc(CNC(=O)c2cc3c(=O)n(Cc4cccnc4)ccc3nc2C)cc1,inactive: -24.5%,
COc1ccc(OC)c(CCNC(=O)c2csc3c2CCCCC3)c1,inactive: -19.9%,
Cc1cccc(C)c1OCc1nc2c3c(-c4ccccc4)c(-c4ccccc4)oc3ncn2n1,inactive: -6.81%,
CCn1cc(C(=O)N2CCN(c3ccc(C(C)=O)cc3)CC2)c2cc(OC)c(OC)cc2c1=O,inactive: -5.61%,
Cc1csc2nc(COc3ccccc3NC(=O)c3ccc(C(C)(C)C)cc3)cc(=O)n12,inactive: 4.2%,
CC(=O)C1=C(c2ccc(C)c(C)c2)N(C(C)=O)n2c(nnc2-c2ccc(Cl)cc2)S1,inactive: -13.6%,
CCNC(=O)c1nn(-c2ccccc2C)nc1CO,inactive: 2.7%,
Cc1cccc(CNC(=O)CCCn2c(=O)c3cccn3c3ccc(F)cc32)c1,inactive: -5.8%,
O=C(Cn1c(=O)n(-c2ccccc2Cl)c(=O)c2sc3ccccc3c21)NC1CCCCC1,inactive: -11.8%,
Cc1ccc(CN2CCN(CC(=O)Nc3ccc(C)c(C)c3)S2(=O)=O)cc1,inactive: -13%,
N#Cc1cccc(NC(=O)C2CCN(S(=O)(=O)c3ccc4[nH]c(=O)ccc4c3)CC2)c1,inactive: -4.62%,
Cc1c(NC(=O)c2nc3ccccc3nc2N2CCCCC2)cccc1[N+](=O)[O-],inactive: -14.8%,
Cc1ccccc1OC(=O)CSc1nnc(-c2ccc(F)cc2)o1,inactive: 0.24%,

SMILES,"activity change, negative = inhibition",Potency
Cc1c(C)c2c(c(C)c1OC(=O)c1cccnc1)CC[C@@](C)(CCC[C@H](C)CCC[C@H](C)CCCC(C)C)O2,inactive: 3.42%,
Cc1ccc(C(=O)Nc2ccc(-c3nc4ccccc4s3)cc2C)cc1C,inactive: 44.7%,
COc1ccc(N2CC(NC(=O)CCCc3ccccc3)CC2=O)cc1 (centres undefined),inactive: 2.48%,
COC(=O)c1ccccc1NC(=O)Nc1nnc(N2CCC(C)CC2)s1,inactive: 3.47%,
CCOc1cc(CNC(=O)NC2COc3ccc(OC)cc3C2)cc(OCC)c1OCC (centres undefined),inactive: -15%,
O=C(NCc1ccc2c(c1)OCO2)c1ccc2c(c1)N(Cc1cccc(Cl)c1)C(=O)c1ccccc1S2=O (centres undefined),inactive: -20%,
CCN(CCCNC(=O)c1ccc(Sc2ccc(F)cc2)c(NC(C)=O)c1)c1ccccc1,inactive: -25.8%,
Cc1ccc(CSC2=Nc3ccccc3C3=NC(CCC(=O)NCc4cccs4)C(=O)N23)cc1 (centres undefined),inactive: 25.4%,
O=C(NCC(c1ccc2c(c1)OCO2)N1CCN(c2ccccc2)CC1)C(=O)Nc1cccc(F)c1 (centres undefined),inactive: -11.4%,
CCN(CC)C(=O)CSc1nc2cc3c(cc2c(=O)n1CCCCCC(=O)NCc1ccc(OC)cc1)OCO3,inactive: -11.5%,
Cc1ccc(-c2nc3c(C)cccn3c2Nc2ccccc2C)s1,inactive: -1.38%,
Cc1ccc(F)cc1NC(=O)Cn1c(=O)nc(-c2ccccc2F)c2cc(Cl)ccc21,inactive: -8.86%,
CC1CCCN(c2nc3c(S(=O)(=O)c4ccc(C(C)C)cc4)nnn3c3ccsc23)C1 (centres undefined),inactive: -3.02%,
COc1ccccc1C(=O)NCc1nnnn1-c1ccc(C)c(C)c1,inactive: 6.33%,
COc1ccc(-c2csc(-c3nc(-c4ccc(Br)s4)cs3)n2)cc1F,inactive: -16.8%,
CCC1CCCCN1CCCNC(=O)c1c(O)nc2ccccn2c1=O (centres undefined),inactive: -4.46%,
COc1cccc(CN2C(=O)c3ccccc3Sc3ccc(C(=O)NCCc4ccc(C)cc4)cc32)c1,inactive: -24.4%,
COc1ccccc1C(=O)N1CCCCC1CCN1CCOCC1 (centres undefined),inactive: -7.16%,
O=C(Nc1ccc(-c2nc3cc(NC(=O)c4ccccc4F)ccc3o2)cc1)c1ccccc1F,inactive: -8.15%,
N#Cc1ccccc1NC(=O)CSc1ncn[nH]1,inactive: -2.42%,
CCCCCCCC/C=C\CCCCCCCC(=O)NCc1ccc(O)c(OC)c1,inactive: -1.84%,
CCCc1nn2c(=O)cc(COC(=O)c3cccs3)nc2s1,inactive: 38.9%,
CCOc1ccc(C(=O)c2cn(CC(=O)Nc3ccc4c(c3)OCCO4)c3ccc(OC)cc3c2=O)cc1,inactive: -14.2%,
O=C(NCc1ccccc1)c1cc2sccc2n1Cc1ccc(F)cc1,inactive: -16.9%,

SMILES,"activity change, negative = inhibition",Potency
Cn1c(=O)c2c(nc(Oc3ccc(F)cc3)n2Cc2ccc(F)cc2)n(C)c1=O,inactive: -3.25%,
COc1ccccc1NC(=O)c1sc2nc(C)c(C(=O)Nc3ccc(C)cc3C)c(-c3ccc(Br)cc3)c2c1N,inactive: -17.6%,
CCOc1ccc(C(=O)CSc2nc3cc(C(=O)NC4CCCC4)ccc3c(=O)n2CC2CCCO2)cc1 (centres undefined),inactive: -4.29%,
CC(=O)c1ccc(NC(=O)c2ccc3c(c2)nnn3C2CCCC2)cc1,inactive: -14.2%,
Cc1ccc(C)c(NC(=O)c2nc(S(C)(=O)=O)ncc2N(Cc2ccc(C(C)(C)C)cc2)Cc2ccco2)c1,inactive: -30%,
CN1C(=O)Cc2cc(S(=O)(=O)N3CCN(c4cccc(C(F)(F)F)c4)CC3)ccc21,inactive: -18.8% [at 11.5 µM],
CCOc1ccc(CCn2c3c(c(=O)[nH]c2=O)C(NC(=O)c2ccccc2)(C(F)(F)F)C(=O)N3)cc1OCC (centres undefined),inactive: 2.41%,
CCCCCn1c(=O)[nH]c2cc(C(=O)N3CCN(c4cc(Cl)ccc4C)CC3)ccc2c1=O,inactive: -11.8%,
CCOC(=O)N1CCC(NC(=O)c2ccc3c(c2)N(Cc2cc(C)ccc2C)C(=O)c2ccccc2S3(=O)=O)CC1,inactive: -28.5%,
CCOC(=O)c1c(S(=O)(=O)NCC(=O)Nc2cc(C)ccc2OC)c(C)n(C)c1C,inactive: -9.08%,
Cc1ccccc1C(=O)OCc1cc(=O)n2nc(C3CC3)sc2n1,inactive: 25.6%,
Cc1ccc(C(=O)OCc2cc(=O)n3nc(-c4cccs4)sc3n2)cc1,inactive: -2.97%,
COc1ccc(NC(=O)CSc2nc3ccccc3nc2Cc2ccc(C)cc2)cc1Cl,inactive: -5.32%,
O=C(Cn1cc(SCc2ccccc2F)c2ccccc21)N1CCCCCC1,inactive: 6.32%,
CCN(CC)c1ccc2cc(-c3nc(-c4ccc(Cl)cc4Cl)cs3)c(=O)oc2c1,inactive: -7.96%,
CCOC(=O)c1ccc(Nc2nc3nonc3nc2Nc2cccc(C)c2C)cc1,,active: 2240 nM
Cc1nc(-c2ccccc2)sc1-c1ccc(SCC(=O)NCc2ccccc2)nn1,inactive: 6.1%,
O=c1ncn2nc(Sc3ccc(F)cc3F)ccc2c1-c1c(Cl)cccc1Cl,inactive: -21.8%,
Cc1coc2cc3oc(=O)c(CC(=O)NCc4ccccc4)c(C)c3cc12,inactive: -5.83%,
CC(=O)N1CCCc2cc(S(=O)(=O)N3CCCC(C(=O)Nc4ccc(C)c(C)c4)C3)ccc21 (centres undefined),inactive: -17.8%,
COc1cccc(-c2cnc(NCc3ccccc3Cl)n2C)c1,inactive: 16.2%,
Cc1ccc(C(=O)Nc2ccc3oc(-c4cccnc4)nc3c2)c(Cl)c1,inactive: -16.7%,
C[C@]12C=CC(=O)C=C1CC[C@@H]1[C@@H]2[C@@H](O)C[C@@]2(C)[C@H]1CC[C@]2(O)C(=O)CO,inactive: 3.4%,
CCOc1ccccc1NC(=O)c1cc(S(=O)(=O)NC2CCCC2)ccc1F,inactive: -29.1%,

SMILES,"activity change, negative = inhibition",Potency
CCOc1ccc2nc(N3CCC(C(=O)Nc4c(C)cccc4C)CC3)sc2c1,inactive: 10.5%,
Cc1ccc(S(=O)(=O)Nc2cc3c(cc2Cl)n(C)c(=O)c(=O)n3C)cc1,inactive: -6.4%,
O=c1[nH]cc(F)c(=O)[nH]1,inactive,
Cc1ccc(-n2ncc(C(=O)N3CCC(c4ccccc4)C3)c2C2CCN(C(=O)OC(C)(C)C)CC2)cc1 (centres undefined),inactive: -10.7%,
CCCc1nn2c(C)c(-c3ccccc3)nc2s1,inactive: 76.5%,
Cc1cc(C)c2oc(C(=O)Nc3ccc(S(=O)(=O)N(C)c4ccccc4)cc3)cc(=O)c2c1,inactive: 19.8%,
O=c1c2c3c(sc2n(Cc2cc(=O)n4ccccc4n2)c(=O)n1-c1ccc(Cl)cc1)CCC3,inactive: 13%,
COC(=O)CSc1nnc2n(-c3ccccc3)c(=O)c3c4c(sc3n12)COC(C(C)C)C4 (centres undefined),inactive: -10.7%,
CS(=O)(=O)c1ccc([C@@H](O)[C@@H](CO)NC(=O)C(Cl)Cl)cc1,inactive,
CCOc1ccccc1N1CC(c2nc3ccccc3n2CCOc2ccc(C(C)(C)C)cc2)CC1=O (centres undefined),inactive: -5.32%,
Cc1ccccc1NC(=O)c1sc2nc(N3CCOCC3)c3c(c2c1N)CC(C)(C)OC3,inactive: 62%,
CCOc1ccccc1N(C)C(=O)Cn1nc(Cc2cccnc2)c2ccccc2c1=O,inactive: -10.6%,
COc1cc(NC(=O)N2CCN(c3cc(-c4noc(C)n4)ccc3C)CC2)cc(OC)c1OC,inactive: -13.8%,
Cc1ccc(NC(=O)/C(C#N)=C\c2ccc(Cl)cc2Cl)cc1C,inactive: -22.2%,
COc1ccc2c(c1)c1c(c(=O)n(CCc3ccccc3)c(=O)n1Cc1ccc(Cl)cc1)n2C,inactive: -14.4%,
CCOc1ccccc1NC(=O)N1CCN(S(=O)(=O)c2ccc3c(ccn3C)c2)CC1,inactive: -11.6%,
CC(C)c1ccccc1NC(=O)CSc1nnc(COc2ccccc2Cl)o1,inactive: -36%,
Cc1ccc(-c2ccc(CCC(=O)O)n2-c2ccc(C(C)C)cc2)cc1,inactive: 13.7%,
Nc1c(-c2nc(-c3ccccc3)no2)nnn1CC(=O)Nc1ccccc1,inactive: 14.4%,
COc1ccccc1CNC(=O)Cn1ncc2c(C)n(Cc3ccccc3Cl)c(C)c2c1=O,inactive: -16.5%,
CCc1ccc(NC(=O)CC2C(=O)N(c3ccc(C)cc3)C(=O)N2C2CCCC2)cc1 (centres undefined),inactive: 2.81%,
CC(C)(C)c1ccc(Oc2nc3ccccn3c(=O)c2/C=C(\C#N)c2nc3ccccc3s2)cc1,inactive: -8.91%,
